Data taken from PMC13375126.
Like-named read-outs stand apart in the source and are kept apart here. No constants are given. Whether binding was seen depends on the method and setting. In cells and extracts the contact can be indirect. Some entries that bind do so weakly or less than the wild type.

Chains of the proteins cited; added tags and fusions are not shown.
UniProt A0A640KTS5: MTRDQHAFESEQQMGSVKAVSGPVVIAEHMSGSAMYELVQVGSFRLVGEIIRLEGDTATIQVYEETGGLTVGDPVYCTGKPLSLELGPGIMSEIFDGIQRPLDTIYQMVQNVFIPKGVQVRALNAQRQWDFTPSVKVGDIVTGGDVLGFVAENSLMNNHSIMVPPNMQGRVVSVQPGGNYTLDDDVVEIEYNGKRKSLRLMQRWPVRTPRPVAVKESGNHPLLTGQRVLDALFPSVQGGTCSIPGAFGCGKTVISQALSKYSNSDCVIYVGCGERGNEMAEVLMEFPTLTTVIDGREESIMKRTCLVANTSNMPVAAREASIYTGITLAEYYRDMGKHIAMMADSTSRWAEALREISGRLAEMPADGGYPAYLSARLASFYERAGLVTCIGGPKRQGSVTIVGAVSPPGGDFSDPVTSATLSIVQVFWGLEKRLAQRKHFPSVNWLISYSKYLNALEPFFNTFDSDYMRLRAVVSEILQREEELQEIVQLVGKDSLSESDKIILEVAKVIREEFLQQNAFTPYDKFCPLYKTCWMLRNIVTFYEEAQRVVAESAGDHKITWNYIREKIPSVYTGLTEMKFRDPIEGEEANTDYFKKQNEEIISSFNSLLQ

T1: mNG-LtVtc4 (L. tarentolae)
T1 sequence: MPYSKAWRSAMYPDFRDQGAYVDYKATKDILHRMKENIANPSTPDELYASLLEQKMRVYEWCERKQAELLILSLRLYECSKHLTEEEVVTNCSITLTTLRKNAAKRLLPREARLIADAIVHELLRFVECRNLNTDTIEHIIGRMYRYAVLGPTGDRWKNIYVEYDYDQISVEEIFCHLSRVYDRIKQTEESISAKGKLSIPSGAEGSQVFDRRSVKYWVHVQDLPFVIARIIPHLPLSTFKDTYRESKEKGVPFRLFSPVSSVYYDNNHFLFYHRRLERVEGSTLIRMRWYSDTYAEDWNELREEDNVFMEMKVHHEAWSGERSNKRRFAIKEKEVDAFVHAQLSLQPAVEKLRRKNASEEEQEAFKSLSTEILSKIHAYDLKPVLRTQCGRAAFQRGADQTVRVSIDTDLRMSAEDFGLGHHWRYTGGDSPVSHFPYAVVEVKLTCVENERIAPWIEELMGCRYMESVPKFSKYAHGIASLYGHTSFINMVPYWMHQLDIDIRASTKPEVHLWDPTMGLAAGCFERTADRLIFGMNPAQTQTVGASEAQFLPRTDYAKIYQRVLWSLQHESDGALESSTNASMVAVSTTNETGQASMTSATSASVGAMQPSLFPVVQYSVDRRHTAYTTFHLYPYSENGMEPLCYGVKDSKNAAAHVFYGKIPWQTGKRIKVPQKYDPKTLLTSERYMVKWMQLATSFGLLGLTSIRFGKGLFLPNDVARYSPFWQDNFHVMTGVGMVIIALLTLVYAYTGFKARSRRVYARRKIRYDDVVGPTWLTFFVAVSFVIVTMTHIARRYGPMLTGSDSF

T2: mCh-LtVBP3 (L. tarentolae)
T2 sequence: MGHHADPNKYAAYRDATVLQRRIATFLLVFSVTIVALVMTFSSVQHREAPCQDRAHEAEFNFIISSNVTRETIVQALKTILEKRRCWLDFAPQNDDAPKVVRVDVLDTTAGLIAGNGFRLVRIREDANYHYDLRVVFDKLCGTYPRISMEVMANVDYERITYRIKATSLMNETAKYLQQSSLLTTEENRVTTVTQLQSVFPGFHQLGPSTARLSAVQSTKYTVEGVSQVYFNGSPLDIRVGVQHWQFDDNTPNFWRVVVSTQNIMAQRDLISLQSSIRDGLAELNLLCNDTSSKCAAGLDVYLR


Tests used:
[1] = target: T1, mNG-LtVtc4 (L. tarentolae); experiment: pull-down; mNeonGreen-Trap agarose beads capture mNG-LtVtc4 from 1% DDM-solubilised lysate of L. tarentolae that also express the mCh-tagged candidate; overnight, 4 °C; 50 mM HEPES pH 7.5, 150 mM NaCl, 1 mM IP6, 1 mM DTT; washes with 0.05% DDM; SDS-PAGE with in-gel fluorescence
[2] = target: T1, mNG-LtVtc4 (L. tarentolae); experiment: as above; remark: listed apart in the source
[3] = target: T2, mCh-LtVBP3 (L. tarentolae); experiment: pull-down; RFP-Trap Magnetic Particles M-270 capture mCh-LtVBP3 from 1% DDM-solubilised lysate of L. tarentolae that also express mNG-LtVtc4; overnight, 4 °C; 50 mM HEPES pH 7.5, 150 mM NaCl, 1 mM IP6, 1 mM DTT; washes with 0.05% DDM; SDS-PAGE with in-gel fluorescence

Row | Molecule | binding [2] | further results
1 | mCh-LtV-H+-ATPase_A (from UniProt A0A640KTS5 1-610) | – | binding [1]: no binding
2 | mCh-LtZnT (protein, UniProt A0A640KNG3 1-443) MPMQTPGETTGLTAASAAPAAANYRAASPTVHVTVAEEKTIDQALTAVEARRESEKRVLLGALIFCFLFMIVEFASGAIAHSLALLTDAIHLLADVGSYALSIGALIAAGRAACGRYSYGWHRAEVIGTLISVFSIWALVTWIVIEAGYRTYDMYMCSLVPAQVSSGAVKVRECQAVDSRLVILVGVLGMVVNVVCASILYFGGSHGHSHFGSSHGHSHGSSEAHDHDHSHGDSHEHDHEHDHGHDHGHDHGYAAQSGGGIGSHKGFAVHAAILHAMGDCVQSIGVILAGCFIYFSNLAYYGKHTYEHSLFNLADPFCSVMFALITLNMTKSLLMDLLSILMESTPASVDYYALELALQKIDGVVSVHDLHVWSLSAEYVSLSVHLVADNSAEALHKAQHICKEHFGIGHTTIQIDPVAVGTAGCASACASPTAHDEISSHYM | no binding | –
3 | mCh-LtVBP3 (protein, UniProt A0A640KSV0 1-304) MGHHADPNKYAAYRDATVLQRRIATFLLVFSVTIVALVMTFSSVQHREAPCQDRAHEAEFNFIISSNVTRETIVQALKTILEKRRCWLDFAPQNDDAPKVVRVDVLDTTAGLIAGNGFRLVRIREDANYHYDLRVVFDKLCGTYPRISMEVMANVDYERITYRIKATSLMNETAKYLQQSSLLTTEENRVTTVTQLQSVFPGFHQLGPSTARLSAVQSTKYTVEGVSQVYFNGSPLDIRVGVQHWQFDDNTPNFWRVVVSTQNIMAQRDLISLQSSIRDGLAELNLLCNDTSSKCAAGLDVYLR | binds weakly | –
4 | mCh-LtCa2+-ATPase (protein, UniProt A0A640KEU5 1-1135) MSSAGKLSVGERCAPQPAPSSSMSSSKATLESAFAIHPETLHELISDGGQDASKRLARIGGLKGLAAQLKTDLVRGIDSTDMKAMAQRREWFSANELPEAEEASFMDMVWESLEDRMVQILIISALVSLVLGLTVPDQDTGLVDYAHGWIEGTAILLSVAIVTLVSSINNYQKEQKFKELSKATPPVKVQVVRSGTTLDITDKDLLSGDLLNVAAGDVLTVDGLVLRSTSLKVDESAATGENDDVAKSAHGDFVLRSGSNITEGEGTILVMGVGVHSFAGHIAMHVREAKEETPLQQKLEELANRIGYMGMAAAGLMFVLLSGKELLDTVVYHTHPFGYKKYLDNLMTAVTIVVVAVPEGLPLSVTIALAYSMKQMFKENNLVRHLAACETMGGATTICTDKTGTITQNDMSVTDGVTTYGVAYVVPRKLPTLAGEDEKAGSETVASHSPPLQTSTSMNASSVLGGAQAANVRRLLMECIAMNTKATLTRLESLNGKHATVRLTGSKTEQALLNFVNALGEDPMQLRSERLSRLNEEAMRTPSSPFSLVPWPTGLAGTSSNVVAAAATFTKDLRIYPFTSARKRMTTALVLRPEKLLRYYVKGASELILAECTHTYDAQGERVGLCHEVRMRLEEAIMAMARRQLRTLAIAYADYPLSSEDSVTSQGSSDSDEGGTTRSSPFLEDDARLVGLTLVGIVGIRDPVRLEVPEAVAQCRRAGVVVRMITGDNKATAVSIAKEVGIYGKVWSGPAKDEQGLALEGPQFRELAKSARKLNAILPRLQVISRASPMDKHILVSALMKRGEVVAVTGDGTNDAPALKGANVGFSMNSGTEVAKLASDVVILDDNFSTIVTAMKWGRNVNDNICKFLQFQMTVNVAAVVVSFIGALLDRNGDSPLKPVQLLWVNLIMDTLAALALATETPSDEVLLRPPKPKAAPLITRRMWLNIAGQSLYQILIQQYLLLGGTNTLGLAVQDSEELHTLIFNVFVLMQLSNEFNARILDNSVAFWHNLSNAPMFIIVVGTMFVIQIISVQYGGTFMQCVPLPLASWLTSLALGVVPLFLGFVLRRIGVVEKEIPPPLPVVDTEEEAALQLALKQHVRPTLRDTAGKVRMQLRVLKAFRANAQAQRVARTRSM | no binding | –
5 | mNG-LtVtc4 (protein, UniProt A0A640K9H1 1-807) MPYSKAWRSAMYPDFRDQGAYVDYKATKDILHRMKENIANPSTPDELYASLLEQKMRVYEWCERKQAELLILSLRLYECSKHLTEEEVVTNCSITLTTLRKNAAKRLLPREARLIADAIVHELLRFVECRNLNTDTIEHIIGRMYRYAVLGPTGDRWKNIYVEYDYDQISVEEIFCHLSRVYDRIKQTEESISAKGKLSIPSGAEGSQVFDRRSVKYWVHVQDLPFVIARIIPHLPLSTFKDTYRESKEKGVPFRLFSPVSSVYYDNNHFLFYHRRLERVEGSTLIRMRWYSDTYAEDWNELREEDNVFMEMKVHHEAWSGERSNKRRFAIKEKEVDAFVHAQLSLQPAVEKLRRKNASEEEQEAFKSLSTEILSKIHAYDLKPVLRTQCGRAAFQRGADQTVRVSIDTDLRMSAEDFGLGHHWRYTGGDSPVSHFPYAVVEVKLTCVENERIAPWIEELMGCRYMESVPKFSKYAHGIASLYGHTSFINMVPYWMHQLDIDIRASTKPEVHLWDPTMGLAAGCFERTADRLIFGMNPAQTQTVGASEAQFLPRTDYAKIYQRVLWSLQHESDGALESSTNASMVAVSTTNETGQASMTSATSASVGAMQPSLFPVVQYSVDRRHTAYTTFHLYPYSENGMEPLCYGVKDSKNAAAHVFYGKIPWQTGKRIKVPQKYDPKTLLTSERYMVKWMQLATSFGLLGLTSIRFGKGLFLPNDVARYSPFWQDNFHVMTGVGMVIIALLTLVYAYTGFKARSRRVYARRKIRYDDVVGPTWLTFFVAVSFVIVTMTHIARRYGPMLTGSDSF | – | binding [3]: binds

Further lines, with some results ahead:

Row | binding [2] | Molecule | further results
6 | no binding | mCh-LtPho91 (protein, UniProt A0A640KRT3 1-734) MKFGKRLQDEIVLEWADYYVNYKRLKQFIHNSELRGGDFSNELFNIITEEIAKAEGLFQQLMADLQEEHGRLMKLNPDLPVAPVTKPSKFYRRKKGSSANDEAPNEETGLVSTATSSVCDQSVLDGELMPHHQRKGLGALFKRLFLLLIGDSQVKEVDSNTPRALFLEWHSNAHQLQHFAELNLEAIRKSAKKLKKYRRMEDDCTAAIEAELARSRLVTLMPRLRNLLLDVSVDFERKFKVPLDQYANVAMSQAWHARWRYIFVGAALFLVVKQLPVLKEDPAAHNCLALFVFIITLWITEAIPFFCTAMLIPLLAVPLRIVMDPTTHESATATVASQIILGKLFNHVQILVMGGLTMAKAFSRTNLEMYAASMLHRWTAHRPSLYLLGVMLSSCLLCAFVSNVAAPLLVLGVVQRTLWEFPEGTNAPHGILLGLAFACNIGGMLSPIASPQNAVAISALSFYKVSFAQWVGVALPVVLFCVVAAWAVVLIVWSPFADVPYIPLQVVNTAADEQVSSATRVVVLVVSAITITLWILPANLFFGDTGIVALIPIVVFFGIGILSKEDFNTLSWHLMFLLAGGNMLGLCARDSRLLDIIAMSMKSTLAHSPPYLTLFVVLVAVGVITTFVSHTVAAMILLPIIVKIGFLMPESTGIMTVTPQSMVMLSALMCSGAMAFPISSFPNVNSLLAEDAKGKPYLRAKDFLFCGTVITLVFAACLVTWMVPLSNYVLPSDH | –
7 | binds | mCh-LtVBP1 (protein, UniProt A0A640KSV2 1-122) MPCQVGQRNWTFTDSSVCYVTPNLRLRQCVCPLTTCTPTTEGYGCHLTSSAMILSSVLVIVWIMAACAYVYVLNYVGELELEARTEKVVSLSRNYYYHKLFGSDSTIVPSSVYVPDGKLRSE | –
8 | binds | mCh-LtVtc1 (protein, UniProt A0A640KC32 1-180) MDATNRGLSYLCCVGGSLKPWAEGQDEGDDKYESLQGPGGRNLTGSVNDKRICVPQKIDPKTFFANERTFLKWLSISVMVGLMSLTLLNFGDSTNNGAELAGLVLLPVSIVFMVYSLFIFRDRANKIYMREPMRYDDTRGPTLLVLVLGSALALATLFSLQRQYTQTVVSSFSETARFSQ | –
